Read counts are not given, so values of variants with three or more changes are uncertain.
B1: LINE1-mini (parent)
chain: GGCAGAGCUCAACACAGCGUGGCAAAGUGGCUGUGGCUAGACUGCC

Variants of: B1
Assay: self-cleavage, relative activity (ratio to wild type); higher = more cleavage; in vitro, sequencing; the parent is a self-cleaving ribozyme
C3A G17C G19U gave a self-cleavage of 0.08.
With C3A G17U A24C U32G C42G the self-cleavage was 0.12.
In the case of C3A G17U C18U G36U, the self-cleavage is reported as 0.25.
Work on C3A G17U G19C yielded a self-cleavage of 0.05.
C3A G17U G44A gave a self-cleavage of 0.1.
With C3A G19A A24C the self-cleavage was 0.13.
With C3A G19A U32G the self-cleavage was 0.05.
With C3A G19C C31U G33A the self-cleavage was 0.19.
Work on C3A G19U A41U yielded a self-cleavage of 0.18.
With C3A G19U C23G G44C the self-cleavage was 0.84.
In the case of C3A G19U C37U, the self-cleavage is reported as 0.55.
C3A G19U G33U gave a self-cleavage of 0.04.
C3A G19U U20A showed a self-cleavage of 0.13.
C3A G19U U34A gave a self-cleavage of 0.15.
C3A G21A A24U U28G C45U showed a self-cleavage of 0.11.
For C3A G21A C23G, the self-cleavage was 0.47.
For C3A G21A G30A G40A C45G, the self-cleavage was 0.21.
Variant C3A G21C C23U has a self-cleavage of 0.44.
Variant C3A G21C G30C C31G has a self-cleavage of 0.07.
C3A G21C U32G G44U showed a self-cleavage of 0.23.
In the case of C3A G21U A24U G35U G40A, the self-cleavage is reported as 0.17.
For C3A G21U A26G U38G, the self-cleavage was 0.17.
With C3A G21U G35U the self-cleavage was 0.23.
In the case of C3A G21U U32A, the self-cleavage is reported as 0.06.
With C3A G21U U38G the self-cleavage was 0.03.
With C3A G22A A41C G44A the self-cleavage was 0.05.
Variant C3A G22A G35U has a self-cleavage of 0.17.
In the case of C3A G22A U28A C31A, the self-cleavage is reported as 0.31.
C3A G22C A26G C46U showed a self-cleavage of 0.07.
C3A G22C C23G showed a self-cleavage of 0.23.
Work on C3A G22C C42A yielded a self-cleavage of 0.06.
C3A G22C C42U C45G gave a self-cleavage of 0.07.
For C3A G22C G30C C42U G44A C45A, the self-cleavage was 0.06.
C3A G22U A25G C42U showed a self-cleavage of 0.06.
For C3A G22U G27U G30U, the self-cleavage was 0.9.
Variant C3A G22U G30U has a self-cleavage of 0.92.
C3A G22U G35C gave a self-cleavage of 0.17.
Variant C3A G22U U28C U34G C45A has a self-cleavage of 0.03.
In the case of C3A G27A C31A, the self-cleavage is reported as 0.11.
For C3A G27A C45A, the self-cleavage was 0.5.
C3A G27A G35U U43C gave a self-cleavage of 0.26.
In the case of C3A G27A G40U U43A, the self-cleavage is reported as 0.08.
For C3A G27A U28C U43G G44C, the self-cleavage was 0.11.
Variant C3A G27C C31G U38G U43C G44U has a self-cleavage of 0.02.
For C3A G27C G29A, the self-cleavage was 0.14.
Variant C3A G27C G35A has a self-cleavage of 0.31.
C3A G27C G36U U43G showed a self-cleavage of 0.15.
C3A G27C U28G C31U gave a self-cleavage of 0.13.
Work on C3A G27U G36A yielded a self-cleavage of 0.63.
C3A G27U U34G gave a self-cleavage of 0.04.
C3A G29A U38G gave a self-cleavage of 0.18.
Variant C3A G29U G30U U34C A39G A41C C45U has a self-cleavage of 0.05.
Work on C3A G30A A39C yielded a self-cleavage of 0.07.
Variant C3A G30A A41G has a self-cleavage of 0.13.
With C3A G30C C31G A41G C46U the self-cleavage was 0.09.
C3A G30C G35U gave a self-cleavage of 0.37.
For C3A G33A C45A, the self-cleavage was 0.09.
In the case of C3A G33A C46G, the self-cleavage is reported as 0.25.
C3A G33C A39G gave a self-cleavage of 0.14.
Variant C3A G33C G44A has a self-cleavage of 0.07.
For C3A G33U C37U, the self-cleavage was 0.41.
Variant C3A G35A A41U has a self-cleavage of 0.06.
C3A G35A C45G gave a self-cleavage of 0.12.
C3A G35A U43A gave a self-cleavage of 0.46.
Work on C3A G35C A39U yielded a self-cleavage of 0.16.
Work on C3A G35U A39G yielded a self-cleavage of 0.21.
C3A G36C C37G showed a self-cleavage of 0.47.
Variant C3A G36U C37A has a self-cleavage of 0.31.
Work on C3A G36U C42G U43C yielded a self-cleavage of 0.01.
C3A G36U U43A gave a self-cleavage of 0.27.
Variant C3A G40A C45A has a self-cleavage of 0.13.
In the case of C3A G40U C42A, the self-cleavage is reported as 0.27.
For C3A U9A A12G G44A, the self-cleavage was 0.03.
Work on C3A U9A A14U U28A U32G yielded a self-cleavage of 0.11.
Work on C3A U9A C10A C45G C46A yielded a self-cleavage of 0.06.
C3A U9A C10U G27A C31G showed a self-cleavage of 0.06.
With C3A U9A C13A G21A C23A the self-cleavage was 1.2.
Work on C3A U9A C15U G22C C31A yielded a self-cleavage of 0.06.
In the case of C3A U9A C31G, the self-cleavage is reported as 0.07.
In the case of C3A U9A G22C C31G, the self-cleavage is reported as 0.19.
Variant C3A U9A G27C has a self-cleavage of 0.26.
For C3A U9A G29U G35U, the self-cleavage was 0.12.
C3A U9A G30C U32G G36U A39G gave a self-cleavage of 0.08.
C3A U9A G35U showed a self-cleavage of 0.04.
C3A U9A U20C G22C G33A gave a self-cleavage of 0.08.
C3A U9A U28G G29U C42A gave a self-cleavage of 0.4.
C3A U9C A14G gave a self-cleavage of 0.04.
Variant C3A U9C A14U G35A has a self-cleavage of 0.04.
Variant C3A U9C A24C has a self-cleavage of 0.02.
For C3A U9C C13G C37A, the self-cleavage was 0.07.
Work on C3A U9C C18G G21U C23A A24U G29U C37G yielded a self-cleavage of 0.02.
C3A U9C C31U gave a self-cleavage of 0.03.
In the case of C3A U9C C37A, the self-cleavage is reported as 0.05.
Variant C3A U9C G40C has a self-cleavage of 0.03.
Variant C3A U9C U38A G40U has a self-cleavage of 0.05.
C3A U9G A16C G19C G44A showed a self-cleavage of 0.03.
For C3A U9G A25G, the self-cleavage was 0.04.
In the case of C3A U9G C13U, the self-cleavage is reported as 1.01.
For C3A U9G C23U G27A C42U C45A, the self-cleavage was 0.04.
C3A U9G G17C U20C G36A gave a self-cleavage of 2.23.
In the case of C3A U9G G19U, the self-cleavage is reported as 1.84.
With C3A U9G G29U C46A the self-cleavage was 1.03.
In the case of C3A U9G G30A A41U, the self-cleavage is reported as 0.05.
Work on C3A U20A C42A yielded a self-cleavage of 0.1.
Variant C3A U20C A25U C46A has a self-cleavage of 0.04.
With C3A U20C U32C C46A the self-cleavage was 0.1.
C3A U20G G40U G44U gave a self-cleavage of 0.16.
With C3A U20G U28G G36U U43C G44C the self-cleavage was 0.02.
In the case of C3A U20G U32A C42U, the self-cleavage is reported as 0.1.
Work on C3A U20G U38A G44A yielded a self-cleavage of 0.12.
In the case of C3A U28A C31U U34G, the self-cleavage is reported as 0.01.
Variant C3A U28A C42U has a self-cleavage of 0.24.
C3A U28A G30U A39C gave a self-cleavage of 0.19.
C3A U28C G30U C37A gave a self-cleavage of 0.03.
Variant C3A U28G C45A has a self-cleavage of 0.25.
Work on C3A U28G C45G yielded a self-cleavage of 0.35.
C3A U28G G33U C42U showed a self-cleavage of 0.26.
Work on C3A U32A U38C yielded a self-cleavage of 0.05.
Variant C3A U32G C37A has a self-cleavage of 0.17.
Work on C3A U32G C37A C45A yielded a self-cleavage of 0.16.
For C3A U32G G40A C42G, the self-cleavage was 0.17.
C3A U34A C45A gave a self-cleavage of 0.11.
In the case of C3A U34A G36U G40A, the self-cleavage is reported as 0.01.
C3A U34A G40U gave a self-cleavage of 0.11.
With C3A U34C C37A G40A the self-cleavage was 0.09.
C3A U34C C42A showed a self-cleavage of 0.15.
C3A U34C C45A showed a self-cleavage of 0.04.
Work on C3A U34C G36U yielded a self-cleavage of 0.21.
C3A U34C G36U C42U G44C showed a self-cleavage of 0.07.
Work on C3A U34G C37G yielded a self-cleavage of 0.06.
Variant C3A U34G C42A G44C C45G has a self-cleavage of 0.09.
Variant C3A U34G G40C has a self-cleavage of 0.01.
C3G A4C A16U G17U G27A showed a self-cleavage of 0.22.
C3G A4C A24C G29U G44C showed a self-cleavage of 0.05.
In the case of C3G A4C C8U A25C G27C U43C, the self-cleavage is reported as 0.06.
Work on C3G A4C C13A C37U yielded a self-cleavage of 1.04.
C3G A4C C13U G17A G40A gave a self-cleavage of 0.25.
With C3G A4C C23U the self-cleavage was 0.35.
C3G A4C C23U C42G showed a self-cleavage of 0.06.
Variant C3G A4C G5A A6G G40U has a self-cleavage of 0.56.
With C3G A4C G17C C46A the self-cleavage was 0.19.
C3G A4C G21A U28A C31G U43G gave a self-cleavage of 0.1.
Work on C3G A4C G22A yielded a self-cleavage of 0.13.
With C3G A4C G27U A39U the self-cleavage was 0.2.
C3G A4C U28C G29U A39G C46A showed a self-cleavage of 0.11.
Variant C3G A4G A6C has a self-cleavage of 0.38.
C3G A4G A12G C13A gave a self-cleavage of 0.1.
In the case of C3G A4G A14C A25C G29A C31G A41G, the self-cleavage is reported as 0.
For C3G A4G A25G C31A, the self-cleavage was 0.03.
Variant C3G A4G C13A G29U C37A G40C has a self-cleavage of 0.1.
Variant C3G A4G C13A G44A has a self-cleavage of 0.06.
Variant C3G A4G C18U U28G has a self-cleavage of 0.34.
C3G A4G C37A showed a self-cleavage of 0.08.
Work on C3G A4G G22A yielded a self-cleavage of 0.1.
For C3G A4G G27A C31G, the self-cleavage was 0.04.
C3G A4G G33U showed a self-cleavage of 0.13.
With C3G A4G G36C the self-cleavage was 0.18.
For C3G A4G U20G, the self-cleavage was 0.05.
Work on C3G A4U A6C C10U U20G G44U yielded a self-cleavage of 0.02.
C3G A4U A11G gave a self-cleavage of 0.03.
Variant C3G A4U C8A G19A has a self-cleavage of 0.88.
Variant C3G A4U C8U G19A C23U C46A has a self-cleavage of 0.02.
In the case of C3G A4U C31G, the self-cleavage is reported as 0.08.
For C3G A4U C42U, the self-cleavage was 0.04.
C3G A4U G5A A11U gave a self-cleavage of 0.03.
Work on C3G A4U G5C yielded a self-cleavage of 0.49.
C3G A4U G33U G44C C45A showed a self-cleavage of 0.12.
